Experimental data from the supplement of paper PMC8728848.
Some of the results follow.

What was measured:
Assay in all cases: glycan array binding signal (z-score within array); higher = stronger binding
Conditions in all cases: glycan notation: IUPAC condensed, linker removed
[1] = molecular target: Neu5Ac(a2-6)Gal(b1-4)GlcNAc(b1-3)Gal(b1-4)[Fuc(a1-3)]Glc
Summary of the method: (§1)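 The Consortium for Functional Glycomics database supplied 3228 glycan arrays, of which those lacking an available protein sequence were dropped. The binding signal, a within-array Z-score, was averaged across arrays of the same protein sequence and across linkers. Negative scores can be read as non-binding.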

[2] = molecular target: Neu5Ac(a2-6)Gal(b1-4)GlcNAc(b1-3)[Neu5Ac(a2-6)Gal(b1-4)GlcNAc(b1-6)]Gal(b1-4)Glc
Summary of the method: as §1

[3] = molecular target: Neu5Ac(a2-6)Gal(b1-4)GlcNAc(b1-6)[Gal(b1-3)GlcNAc(b1-3)]Gal(b1-4)Glc
Summary of the method: as §1

[4] = molecular target: Neu5Ac(a2-6)Gal(b1-4)[Fuc(a1-3)]GlcNAc(b1-3)Gal(b1-4)Glc
Summary of the method: as §1

[5] = molecular target: Neu5Ac(a2-6)Gal(b1-6)GalNAc(b1-4)Gal(b1-4)Glc
Summary of the method: as §1

Neu5Ac(a2-6)Gal6S = molecular target: Neu5Ac(a2-6)Gal6S
Summary of the method: as §1

[6] = molecular target: Neu5Ac(a2-6)Gal6S(b1-4)Glc
Summary of the method: as §1

[7] = molecular target: Neu5Ac(a2-6)Gal6S(b1-4)Glc4S
Summary of the method: as §1

Neu5Ac(a2-6)GalNAc = molecular target: Neu5Ac(a2-6)GalNAc
Summary of the method: as §1

Neu5Ac(a2-6)Glc = molecular target: Neu5Ac(a2-6)Glc
Summary of the method: as §1

Neu5Ac(a2-6)Glc6S = molecular target: Neu5Ac(a2-6)Glc6S
Summary of the method: as §1

Neu5Ac(a2-6)GlcNAc = molecular target: Neu5Ac(a2-6)GlcNAc
Summary of the method: as §1

Neu5Ac(a2-6)GlcNAc6S = molecular target: Neu5Ac(a2-6)GlcNAc6S
Summary of the method: as §1

Neu5Ac(a2-8)Neu5Ac = molecular target: Neu5Ac(a2-8)Neu5Ac
Summary of the method: as §1

[8] = molecular target: Neu5Ac(a2-8)Neu5Ac(a2-3)Gal
Summary of the method: as §1

[9] = molecular target: Neu5Ac(a2-8)Neu5Ac(a2-3)Gal(b1-3)GalNAc(b1-4)[Neu5Ac(a2-3)]Gal(b1-4)Glc
Summary of the method: as §1

[10] = molecular target: Neu5Ac(a2-8)Neu5Ac(a2-3)Gal(b1-3)GalNAc(b1-4)[Neu5Ac(a2-8)Neu5Ac(a2-3)]Gal(b1-4)Glc
Summary of the method: as §1

[11] = molecular target: Neu5Ac(a2-8)Neu5Ac(a2-3)Gal(b1-4)Glc
Summary of the method: as §1

[12] = molecular target: Neu5Ac(a2-8)Neu5Ac(a2-3)[Gal(b1-3)GalNAc(b1-4)]Gal(b1-4)Glc
Summary of the method: as §1

[13] = molecular target: Neu5Ac(a2-8)Neu5Ac(a2-3)[GalNAc(b1-4)]Gal(b1-4)Glc
Summary of the method: as §1

[14] = molecular target: Neu5Ac(a2-8)Neu5Ac(a2-6)Gal
Summary of the method: as §1

[15] = molecular target: Neu5Ac(a2-8)Neu5Ac(a2-6)Glc
Summary of the method: as §1

[16] = molecular target: Neu5Ac(a2-8)Neu5Ac(a2-8)Neu5Ac
Summary of the method: as §1

[17] = molecular target: Neu5Ac(a2-8)Neu5Ac(a2-8)Neu5Ac(a2-3)Gal(b1-4)Glc
Summary of the method: as §1

[18] = molecular target: Neu5Ac(a2-8)Neu5Ac(a2-8)Neu5Ac(a2-6)Gal
Summary of the method: as §1

[19] = molecular target: Neu5Ac(a2-8)Neu5Ac(a2-8)Neu5Ac(a2-8)Neu5Ac
Summary of the method: as §1

[20] = molecular target: Neu5Ac(a2-8)Neu5Ac(a2-8)Neu5Ac(a2-8)Neu5Ac(a2-8)Neu5Ac
Summary of the method: as §1

[21] = molecular target: Neu5Ac(a2-8)Neu5Ac(a2-8)Neu5Ac(a2-8)Neu5Ac(a2-8)Neu5Ac(a2-8)Neu5Ac
Summary of the method: as §1

[22] = molecular target: Neu5Ac(a2-8)Neu5Ac(a2-8)Neu5Ac(a2-8)Neu5Ac(a2-8)Neu5Ac(a2-8)Neu5Ac(a2-8)Neu5Ac
Summary of the method: as §1

[23] = molecular target: Neu5Ac(a2-8)Neu5Ac(a2-8)Neu5Ac(a2-8)Neu5Ac(a2-8)Neu5Ac(a2-8)Neu5Ac(a2-8)Neu5Ac(a2-8)Neu5Ac
Summary of the method: as §1

[24] = molecular target: Neu5Ac(a2-8)Neu5Ac(a2-8)Neu5Ac(a2-8)Neu5Ac(a2-8)Neu5Ac(a2-8)Neu5Ac(a2-8)Neu5Ac(a2-8)Neu5Ac(a2-8)Neu5Ac
Summary of the method: as §1

[25] = molecular target: Neu5Ac(a2-8)Neu5Ac(a2-8)Neu5Ac(a2-8)Neu5Ac(a2-8)Neu5Ac(a2-8)Neu5Ac(a2-8)Neu5Ac(a2-8)Neu5Ac(a2-8)Neu5Ac(a2-8)Neu5Ac
Summary of the method: as §1

[26] = molecular target: Neu5Ac(a2-9)Neu5Ac(a2-3)Gal(b1-4)Glc
Summary of the method: as §1

Neu5Ac(b2-3)Gal(b1-4)Glc = molecular target: Neu5Ac(b2-3)Gal(b1-4)Glc
Summary of the method: as §1

Neu5Ac(b2-6)Gal(b1-4)Glc = molecular target: Neu5Ac(b2-6)Gal(b1-4)Glc
Summary of the method: as §1

[27] = molecular target: Neu5Ac9Ac(a2-3)Gal(b1-3)[Fuc(a1-4)]GlcNAc
Summary of the method: as §1

[28] = molecular target: Neu5Ac9Ac(a2-3)Gal(b1-4)[Fuc(a1-3)]GlcNAc
Summary of the method: as §1

[29] = molecular target: Neu5Ac9Ac(a2-3)Gal(b1-4)[Fuc(a1-3)]GlcNAc(b1-3)Gal
Summary of the method: as §1

[30] = molecular target: Neu5Ac9Ac(a2-6)Gal(b1-4)GlcNAc
Summary of the method: as §1

[31] = molecular target: Neu5Ac9Me(a2-3)Gal(b1-4)Glc
Summary of the method: as §1

[32] = molecular target: Neu5Gc(a2-3)Gal(b1-3)GlcNAc(b1-3)Gal(b1-4)Glc
Summary of the method: as §1

Neu5Gc(a2-3)Gal(b1-4)Glc = molecular target: Neu5Gc(a2-3)Gal(b1-4)Glc
Summary of the method: as §1

[33] = molecular target: Neu5Gc(a2-3)Gal(b1-4)[Fuc(a1-3)]GlcNAc(b1-3)Gal
Summary of the method: as §1

[34] = molecular target: Neu5Gc(a2-6)Gal(b1-3)GlcNAc(b1-3)Gal(b1-4)Glc
Summary of the method: as §1

[35] = molecular target: Neu5Gc(a2-6)Gal(b1-4)GlcNAc(b1-2)Man(a1-3)[Neu5Gc(a2-6)Gal(b1-4)GlcNAc(b1-2)Man(a1-6)]Man(b1-4)GlcNAc(b1-4)GlcNAc
Summary of the method: as §1

Measured: glycan array binding signal (z-score)

B1: ZG16p (Homo sapiens), O60844 (protein)
chain: ARSSSYSGEYGGGGGKRFSHSGNQLDGPITALRVRVNTYYIVGLQVRYGKVWSDYVGGRNGDLEEIFLHPGESVIQVSGKYKWYLKKLLFVTDKGRYLSFGKDSGTSFNAVPLHPNTVLRFISGRSGSLIDAIGLHWDVYPSSCSRC
-0.282: [35]
-0.141: Neu5Ac(a2-6)GlcNAc
-0.293: [6]
-0.306: [16] | Neu5Ac(b2-3)Gal(b1-4)Glc
-0.26: Neu5Ac(a2-6)Gal6S
-0.281: [11]
-0.144: Neu5Gc(a2-3)Gal(b1-4)Glc
-0.283: [18]
-0.251: Neu5Ac(a2-6)Glc6S
-0.186: Neu5Ac(b2-6)Gal(b1-4)Glc
-0.328: all other assays above
